Measured values from patent US20220380436A1 (BOARD OF TRUSTEES OF THE UNIVERSITY OF ILLINOIS, published 2022).

Molecular target: T1, membrane-tethered HCMV trimer (full-length gH, gL-FLAG, gO-8his) of strain TB40/E on Expi293F cells (human cytomegalovirus strain TB40/E)
T1 construct: also called membrane-localized HCMV trimer; HCMV trimer expressed at the cell surface; not shown: C-terminal FLAG tag
Assay: flow cytometry, sPDGFRα-Fc on Expi293F cells expressing the trimer

Row | Binder | binding result
1 | wild-type soluble PDGFRα-Fc (redesigned fusion to human IgG1 Fc) (Fc fusion, also called sPDGFRα-Fc; sPDGFRα-Fc WT) QLSLPSILPNENEKVVQLNSSFSLRCFGESEVSWQYPMSEEESSDVEIRNEENNSGLFVTVLEVSSASAAHTGLYTCYYNHTQTEENELEGRHIYIYVPDPDVAFVPLGMTDYLVIVEDDDSAIIPCRTTDPETPVTLHNSEGVVPASYDSRQGFNGTFTVGPYICEATVKGKKFQTIPFNVYALKATSELDLEMEALKTVYKSGETIVVTCAVFNNEVVDLQWTYPGEVKGKGITMLEEIKVPSIKLVYTLTVPEATVKDSGDYECAARQATREVKEMKKVTISVHEKGFIEIKPTFSQLEAVNLHEVKHFVVEVRAYPPPRISWLKNNLTLIENLTEITTDVEKIQEIRYRSKLKLIRAKEEDSGHYTIVAQNEDAVKSYTFELLTQVPSSILDLVDDHHGSTGGQTVRCTAEGTPLPDIEWMICKDIKKCNNETSWTILANNVSNIITEIHSRDRSTVEGRVTFAKVEETIAVRCLAKNLLGAENRELKLVAPTLRSEGGGS[human IgG1 Fc left out here] | binds
2 | sPDGFRα-Fc Y206S (redesigned IgG1 Fc fusion) (Fc fusion, also called Soluble PDGFRα-Fc Y206S; the Y206S mutant) QLSLPSILPNENEKVVQLNSSFSLRCFGESEVSWQYPMSEEESSDVEIRNEENNSGLFVTVLEVSSASAAHTGLYTCYYNHTQTEENELEGRHIYIYVPDPDVAFVPLGMTDYLVIVEDDDSAIIPCRTTDPETPVTLHNSEGVVPASYDSRQGFNGTFTVGPYICEATVKGKKFQTIPFNVSALKATSELDLEMEALKTVYKSGETIVVTCAVFNNEVVDLQWTYPGEVKGKGITMLEEIKVPSIKLVYTLTVPEATVKDSGDYECAARQATREVKEMKKVTISVHEKGFIEIKPTFSQLEAVNLHEVKHFVVEVRAYPPPRISWLKNNLTLIENLTEITTDVEKIQEIRYRSKLKLIRAKEEDSGHYTIVAQNEDAVKSYTFELLTQVPSSILDLVDDHHGSTGGQTVRCTAEGTPLPDIEWMICKDIKKCNNETSWTILANNVSNIITEIHSRDRSTVEGRVTFAKVEETIAVRCLAKNLLGAENRELKLVAPTLRSEGGGS[human IgG1 Fc left out here] | binds
3 | legacy sPDGFRα-Fc (PDGFRα ectodomain, IEGRMD linker, human IgG1 upper hinge and Fc) (Fc fusion) QLSLPSILPNENEKVVQLNSSFSLRCFGESEVSWQYPMSEEESSDVEIRNEENNSGLFVTVLEVSSASAAHTGLYTCYYNHTQTEENELEGRHIYIYVPDPDVAFVPLGMTDYLVIVEDDDSAIIPCRTTDPETPVTLHNSEGVVPASYDSRQGFNGTFTVGPYICEATVKGKKFQTIPFNVYALKATSELDLEMEALKTVYKSGETIVVTCAVFNNEVVDLQWTYPGEVKGKGITMLEEIKVPSIKLVYTLTVPEATVKDSGDYECAARQATREVKEMKKVTISVHEKGFIEIKPTFSQLEAVNLHEVKHFVVEVRAYPPPRISWLKNNLTLIENLTEITTDVEKIQEIRYRSKLKLIRAKEEDSGHYTIVAQNEDAVKSYTFELLTQVPSSILDLVDDHHGSTGGQTVRCTAEGTPLPDIEWMICKDIKKCNNETSWTILANNVSNIITEIHSRDRSTVEGRVTFAKVEETIAVRCLAKNLLGAENRELKLVAPTLRSEIEGRMD[human IgG1 Fc left out here] | binds
